Whole data set: some 33,000 sequences, median “E-score (-0.5 to 0.5)” near -0.021, cut for the highest 2% near 0.32. Some of the results follow.
molecular target: T1, Zap1 (UniProt P47043); experiment: PBM E-score (8-mer binding enrichment) (E-score (-0.5 to 0.5)); higher = stronger / more preferred TF binding; most listed sequences are background and not binding sites; settings: protein concentration: 200 nM; construct: GST-full length
T1 sequence: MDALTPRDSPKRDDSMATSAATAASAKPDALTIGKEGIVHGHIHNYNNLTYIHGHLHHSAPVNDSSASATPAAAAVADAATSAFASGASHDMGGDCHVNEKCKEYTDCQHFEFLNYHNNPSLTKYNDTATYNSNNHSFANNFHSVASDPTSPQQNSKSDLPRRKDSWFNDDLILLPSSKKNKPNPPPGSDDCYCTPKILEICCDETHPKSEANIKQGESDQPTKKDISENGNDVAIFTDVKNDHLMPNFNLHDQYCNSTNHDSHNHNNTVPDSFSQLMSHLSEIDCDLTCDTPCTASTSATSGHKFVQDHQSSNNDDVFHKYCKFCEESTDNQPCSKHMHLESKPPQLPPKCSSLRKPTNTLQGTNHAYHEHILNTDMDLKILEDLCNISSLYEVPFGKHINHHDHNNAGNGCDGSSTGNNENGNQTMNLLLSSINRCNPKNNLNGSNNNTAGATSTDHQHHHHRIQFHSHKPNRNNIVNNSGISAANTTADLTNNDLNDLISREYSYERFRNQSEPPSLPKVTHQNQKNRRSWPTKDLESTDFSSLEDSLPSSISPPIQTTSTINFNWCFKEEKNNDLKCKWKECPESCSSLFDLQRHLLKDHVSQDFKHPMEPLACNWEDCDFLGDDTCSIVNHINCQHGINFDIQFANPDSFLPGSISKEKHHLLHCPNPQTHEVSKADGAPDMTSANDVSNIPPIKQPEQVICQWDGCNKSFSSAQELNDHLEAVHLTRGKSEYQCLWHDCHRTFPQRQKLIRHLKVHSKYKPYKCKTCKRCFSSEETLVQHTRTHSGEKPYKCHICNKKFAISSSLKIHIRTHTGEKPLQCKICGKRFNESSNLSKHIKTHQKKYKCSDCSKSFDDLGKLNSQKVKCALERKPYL
How it was run: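 Yeast transcription factors carrying a GST tag, as full-length proteins or DNA-binding domains, were produced by PURExpress in vitro transcription/translation. About 100-200 nM protein was applied to universal all-10-mer Agilent arrays, double-stranded by primer extension on fresh or once-stripped slides. Bound protein was detected with fluorescent anti-GST, and scans were normalised with masliner. The Universal PBM Analysis Suite gave each ungapped eight-base word, pooled with its reverse complement, an E-score, a modified Wilcoxon-Mann-Whitney statistic.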

Sequence	PBM E-score
GCTAGGTA	-0.0853
AAAAACGT	0.0252
AGGCTTAC	-0.22
CGGCATAC	-0.198
CACACGAC	0.0123
AAGTTGTG	0.132
AACAAATA	0.161
ATTACACG	0.00914
ATGTGCTA	0.00879
AACTTGAG	-0.143
GTCCCACA	0.0224
AGTAACTC	-0.0584
CATCCACA	-0.0413
CGACCATC	-0.0448
GTAGTACA	0.0324
ATCACGAT	-0.0412
GGACAGGA	-0.0689
ACGCTAAG	-0.235
ATCGAAGG	0.0532
GTGTGAAA	0.135
GGCAGATA	-0.108
CCCACCGA	0.0688

Sequence	PBM E-score
CTATCTGA	-0.122
GCCGTCGC	-0.0684
TAATCTGA	0.0172
ACGCTTTA	-0.195
CAGGTCAC	0.195
CGATTTCC	-0.028
ACGCAGAG	-0.0426
GGTTAAGA	0.364
CAGGCGAC	-0.117
AGTGTGGG	-0.25
AGCAAAGG	0.193
GGCGATTA	-0.156
AATGCTAA	0.0411
GAAACTCC	-0.206
CTTTTATC	0.0786
CTTGTCCC	-0.0324
ATTTCGAA	0.2
GGTGAAAC	-0.0336
ACATGACC	0.229
TCAGATCA	-0.0317
GTACGAGA	-0.151
AGTAAGAC	-0.0197

Sequence	PBM E-score
GTTGCGTA	0.265
CGAAATAC	0.23
AAGCTATA	0.0255
AGCAAATA	-0.0419
GGCTCTAA	0.0427
CAAGGGTC	0.355
AGGTCAAG	0.277
GCAGCTCC	-0.208
CCCGCTTA	-0.188
CGTAACGC	0.04
CAGCCATG	-0.0489
GGTTAGAA	0.271
TACTAGAA	0.0998
ATCTCGTA	-0.0363
ACGTAAGC	-0.186
AACGGAGT	-0.0136
CGAGGTGC	-0.0405
GCTAGCTA	-0.0745
ATGGAGAC	-0.102
ATTATATC	0.0345
GAGCCCAA	-0.0241
CTCGAGTC	0.0344

Sequence	PBM E-score
CATGCACC	0.00947
GGTATGAA	0.313
GGGTTGCA	0.352
CTGCGTGA	-0.173
AAGATTGC	0.034
CGGTATTC	0.0519
AAAGTTAT	0.195
CCAGATAG	0.0348
CAATATAC	0.0336
CTCGCGTC	0.0188
CCGGCGTC	-0.11
ACCGCATA	0.231
AGTTGACA	0.103
ACACCGAT	-0.148
CCTACATC	-0.099
GCTCATCA	-0.0853
ACAGACAC	0.0689
ACTATTCT	-0.034
CGTGCTTA	-0.0642
GCCATCCC	-0.137

From the supplement of paper PMC3334620
